Measured values taken from the RNAGym collection of RNA variant scans (doi:10.1093/nar/gkz1192).
Read counts are not given, so values of variants with three or more changes are uncertain.

B1: CPEB3 Ribozyme (parent)
chain: UAACAGGGGGCCACAGCAGAAGCGUUCACGUCGCAGCCCCUGUCAGAUUCUGGUGAAUCUGCGAAUUCUGCUGUAUAUCUC

Variants of: B1
Assay: self-cleavage, relative activity (ratio to wild type); higher = more cleavage; in vitro, sequencing
Procedure, shortened: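 For each CPEB3 ribozyme variant, relative activity is its cleaved/total read fraction divided by the unmutated ribozyme's. Barcoded error-prone PCR libraries were transcribed by T7 RNA polymerase (5 hours, 37°C) and held in DNase I for 15 min before an EDTA stop, with cleavage occurring throughout. Template-switching reverse transcription and Illumina sequencing were used to read the RNAs. A 5-read minimum applied, and results are the mean of three batches.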

Variant	self-cleavage
A5U U31A U41G A75G	0.57
G6A A35G U80C	0.56
A5U G10C U60C	0.21
G6A A13U U76A	0.31
A5U G33A C50U U72C U78C	0.08
A5U U41A U74C	0.47
G6A A15G U25C A28C U49A A56G	0.05
A5U G9A A15C A20G U51G A64G U78C	0.06
G6A A15G A28G U72C	0.29
A5U U26A A35G A47U U49C U69C	0.25
A5U G30A U41A U67A U76C	0.11
A5U G10U A77G U80C	0.23
G6A A47U U49C U69A U72G	0.16
A5U U41A A57G	0.41
A5U U25C A57U	0.36
A5U U48C U74A	1.25
G6A A35U U67C	0
G6A A13G A18G A45G	0.07
A5U U54C U74C U80A	1.2
A5U U26A A28G A45G U66C	0.24
A5U U49C C79A	1.01

Variant	self-cleavage
A5U U26C U31C U48C	0.3
A5U G9A A15U	0.29
A5U G8U C38U U49C A65C U69C A75G	0.03
A5U G33A U78C	0.4
G6A A18U A20G C62U U80A C81U	0.07
G6A A18G A28G	0.31
G6A A18G A28U	0.24
A5U G9A U54C U66C U67A	0.21
A5U G8U G10U A18G A20U	0.16
A5U U26C U69C U80C	0.34
A5U U26A A56G C62G G70U U74C C81U	0.29
A5U G7C G22C U72C	0.1
G6A A13U U26C C40U U48C	0.23
G6A A15G U26A U41G U54C	0.23
A5U U26C U49A	0.62
A5U U54A U69G	0.86
A5U G8C U78C U80C	0.23
A5U U25G C38U U54C U60C	0.21
A5U C40U U54A	0.87
A5U U31A U58C U60C	0.12
G6A A20U U72A	0.16

Variant	self-cleavage
A5U U26A A35U U41A U60C A75U U78C	0.1
A5U U41C U72C	1.13
A5U U41C U72A	0.89
A5U U43C U51A U67G G73A U74C C79U	0.58
A5U U72C U78C	1.19
G6A A21G G30U U41C	0.3
A5U U41C A56G U67C	0.23
G6A A28G A56U U67C	0.1
A5U G30A U41C U60A U69C	0.13
A5U U25C U41A U43A	0.41
A5U U25A U26A U80C	0.63
A5U G73A A75G	1.41
A5U G10U A28G U51A G52A A64G	0.05
A5U G10C A20U C40U	0.1
G6A A13U A18U U54C U60C	0.08
A5U C38U U41A U58C U72C	0.11
A5U U26C U43A	0.34
G6A A28U G33U U48C	0.06
G6A A21G U49C A56G U78C	0.08
A5U G10A C14A U25C	0.23
A5U U26A A28C U72A A77G	0.63

Variant	self-cleavage
A5U U31C A45G A56G	0.3
A5U U26A A35G U49C U54A	0.84
G6A A20G U48C U78C	0.2
A5U G33C U49C U54C	0.25
A5U G9A U43A A56G	0.37
G6A A18U A57U	0.37
A5U U25C U67C U72C	0.26
A5U U26C U60C U69A	0.21
G6A A20G G22A C44U A65U	0.04
G6A A13U U41A U69C U72C	0.14
A5U C38U A47G U67C A75G	0.18
A5U U43C U51C	0.96
A5U U48A G52U U66C	0.21
A5U U25A U41G U54A	0.14
G6A A18G U41C	0.32
G6A A20U U43A U54C U72C	0.09
G6A A15U G36A U41A A64C U69A	0.07
A5U C40U U48G U54C C62A	0.04
A5U U25C U43C U80C	0.45
A5U G8A A35G U69A	0.19
G6A A13G A28U U43A C71U	0.08
